Results from the supplement of paper PMC3334620.
Over roughly 33,000 sequences, “E-score (-0.5 to 0.5)” has its median near -0.016; the highest 2% begin near 0.31. This is one part of the list.

biological target: Cst6 (UniProt P40535); assay: PBM E-score (8-mer binding enrichment) (E-score (-0.5 to 0.5)); higher = stronger / more preferred TF binding; most listed sequences are background and not binding sites; conditions: protein concentration: 200 nM; construct: GST-DNA-binding domain
How it was run: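 Yeast transcription factors, full-length or as DNA-binding domains, were expressed with a GST tag using PURExpress in vitro transcription/translation. At about 100-200 nM they were applied to universal all-10-mer Agilent arrays, double-stranded by primer extension on fresh or once-stripped slides. Fluorescent anti-GST detected bound protein, and masliner normalised the scans. E-scores for ungapped eight-base words, pooled with reverse complements, came from the Universal PBM Analysis Suite.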

Sequence	PBM E-score
GAATCTCA	-0.17
GAAGGTAA	0.144
CTCAGATC	-0.0954
ACGTGCGG	0.119
CTCTTCTA	-0.109
ATATCCTA	0.0504
GAGAAGGA	-0.114
CACTATAG	-0.0685
GCTACATA	-0.157
CCACGACC	-0.121
AGCTACTC	-0.274
CACATTAC	0.269
AAAATGGG	-0.0472
AGCTCGGC	-0.0177
AGCCACTA	-0.0971
CGGTCATC	0.085
TGTGGGAA	-0.0456
CCGACCTC	-0.26
CTCAGACA	0.0563
AATCATTG	0.103
AGCCTGAT	0.0483
GGCGTCGA	0.198
ATACGCAC	0.073
ATCGTCCA	-0.18
ACTAATGC	0.168

Sequence	PBM E-score
AAGAACTG	-0.0222
ACGCCGTC	0.389
TATTATAA	0.193
AGATGTCA	0.298
ACGTACAC	0.194
AAAGGGCT	-0.174
ACGCGCGT	0.151
AGCCTCGG	-0.25
ACGGAGTA	-0.024
AGACATTG	-0.114
TACTGAAA	0.273
GGCTAAGA	-0.0856
AACCAGTT	0.231
AGCGCCGG	-0.102
CGTACACC	-0.093
GCCCCGAC	-0.259
GGTTATGA	0.076
AAGCTCCC	-0.347
GGTGATCA	0.106
CAGGCTCA	-0.0301
AGTCCAAA	-0.00975
ACTTCAAT	0.187
ATTGTTGC	0.234
CTGGCGTC	-0.0408
CACCCGAC	0.00511

Sequence	PBM E-score
ATTCCCTA	0.00087
CCTTTTCA	0.0178
AAGCGCCA	-0.149
AGGCCACT	-0.174
TCGCAGAA	-0.0678
AATAGTCT	-0.0531
TACCAAGA	0.0149
ATGTCGGC	-0.0222
GCAGTTGA	0.00361
CCCCAGCA	-0.23
AACTGCCC	-0.271
ACAGTTTC	0.124
CCAAAACG	0.0419
TACACCAA	-0.087
CCACAGGA	-0.11
AAGAGCCC	-0.144
AAGACCCT	-0.213
AAGGACCC	-0.382
GAAAATCC	0.103
ACGAGATA	0.096
GTATGGAC	-0.0386
GCGCACGA	0.0114
GGATATCA	-0.0151
TCTCCACA	0.0777
CACTGCGG	0.0257

Sequence	PBM E-score
CAGAGGCC	-0.298
AACAATGC	0.175
TTATAAAA	0.236
GAACTGTC	-0.226
ACTCGCAG	-0.0927
AGGCGATG	-0.0448
CGAACTCG	0.00456
CCTCAGCA	-0.276
GAGAGGAC	-0.16
CCGTCGTA	-0.0253
CCTTAGAG	-0.27
CCTATTCA	-0.0777
AACTCCCC	-0.243
TCTACTCA	0.0937
CCGTAATC	0.0889
CACTTGGC	-0.08
ACTGCCCC	-0.29
AAGTTCGC	0.0219
TCAGTAGA	0.0696
AAGTACAT	0.06
GGAATGAA	0.181
TCCTGTCA	-0.0225
CTAGGAAG	-0.238
CGTGGTTC	-0.077
CACCCGTG	-0.173

Sequence	PBM E-score
AATTCCCC	-0.0694
CTTTAGAC	0.0102
GTCTATTA	0.0308
GCTCGGCA	-0.0691
CTGAGTAC	-0.0198
CCGGCATA	-0.15
CGTCTAAA	-0.113
GGTGCGAC	-0.168
CAATCTAC	-0.0958
GCTCAATA	0.0653
CCAGATAC	-0.0851
CAGAATAA	0.16
AGGCCTAG	-0.221
AGTTCAAA	0.139
AACCCTAT	0.0363
GCATTATA	0.0909
ATAAATAG	0.135
CTGCAGAC	-0.207
AGCTTGGA	-0.274
ACAGGTCC	-0.25
AATATCAA	0.128
CGGTAGAC	-0.102
AATTGCGA	-0.111
AACGTCCT	-0.0138
AGACAAGA	0.0392

Sequence	PBM E-score
TAACACAA	0.211
CCGCCTAA	-0.129
GCTGCCGA	-0.164
GTACTCTA	-0.034
ACAACGCT	0.049
AGTAGGTA	-0.0379
CTTTCGCC	-0.115
GAACACTC	-0.0006
GATCGAAA	0.172
GAAGATTC	0.0408
AAGAGTTC	-0.23
GAAAGTTC	-0.0721
ATAAGGTA	-0.0528
TCCTTCGA	-0.0595
ATACTAGC	-0.052
GATGACTA	0.171
CAATGTAC	-0.0829
GGATCAAC	0.0971
GATTTCCC	0.0776
CGGCTAAC	0.0272
ATTAGGAA	-0.0086
AACGTTAA	0.0396
AGCGGACT	-0.293
GAATGTAC	0.0611
CCCCATTA	-0.257

Sequence	PBM E-score
ATTTACAC	0.149
CCGGCCAG	-0.171
AGATCTTC	0.044
GATAGAAC	0.05
ATTGCTGA	0.165
ATCCGGAC	-0.148
CTGTAATA	0.108
ATAAAAAT	0.232
CCCGGGGA	-0.274
CTCGAGCC	-0.0674
AAGAACGC	0.145
ATTGGTTG	0.00462
CGCTATCA	-0.00554
GGATCGAA	-0.0656
CAACCGTA	-0.103
AAATAGCG	-0.0241
GACGCACC	0.159
CAAAACTA	0.225
AAGCTGCC	-0.0555
AATCCTCA	-0.0539
ACCTTGTA	0.0757
CACGAAAA	0.247
GATCCCTA	-0.19
GTCGGTGA	0.0771
AGGCCTAA	-0.109

Sequence	PBM E-score
AACTCCCA	-0.113
ACACCTTG	0.0381
CCCCTGTC	-0.35
CCGTTTTC	0.182
ATAATATG	0.273
AGGTCCGG	-0.309
ACAGAACG	-0.0258
AAGTCCGC	-0.214
CTCCGCTA	-0.154
GCTACCGA	-0.175
CGCCTGCC	-0.2
AGGATCCA	-0.258
AAGCTCAT	-0.181
CCTCACCC	0.0853
GCTCTCAC	-0.261
GCAAATCA	0.115
ATATCGTC	0.272
AACCTCTT	0.0883
AACGCTAC	-0.0658
ACGCTGCA	-0.118
CCGAGAAC	0.0646
GACGAAAC	0.199
ACATTCCC	-0.0534
AGTGTGGA	-0.0626
ATTCGACG	0.145

Sequence	PBM E-score
ATACCCAC	-0.183
TATTCAAA	0.162
AGGTTTGC	0.0906
ACTATGGC	-0.142
GGTGCGCA	0.0142
ACAGATGT	-0.0693
GCGCGCGA	0.0433
ACTTGGAG	-0.136
AGTCGACT	0.079
AAGCGGTA	-0.138
ACGCGAGG	0.0628
CCTCTATC	-0.187
AGTGTCAT	0.276
AAGATAAA	0.303
GCTTCACC	-0.143
CTCATCAG	0.167
AGGACCGA	-0.156
CAGCGTGA	0.0151
AGGATTTA	0.0361
